Data published in PubChem BioAssay AID488969 (Vanderbilt High Throughput Screening Facility, 2010).
Over roughly 110,000 compounds, “z-score” has its median near -0.1; the highest 2% begin near 2. The list shows a part of the results. Calls of active or inactive are those of the source.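 Rule for the calls: active = z-score in the third read window above 3 or below -3; inactive = the rest.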

These molecules were tested against Metabotropic glutamate receptor 8 (Rattus norvegicus) (UniProt P70579) (assay: rat mGluR8 modulators via GIRK flux, primary screen, cell-based, thallium flux, HTS (AID 488969)). Settings: HEK293 rat mGluR8, GIRK (G protein-gated inwardly rectifying potassium channel) thallium flux, FluoZin2; at 10 µM; stronger effect = higher value; submaximal glutamate (EC20) added with thallium.
UniProt P70579, sequence (P70579 whole entry, looked up): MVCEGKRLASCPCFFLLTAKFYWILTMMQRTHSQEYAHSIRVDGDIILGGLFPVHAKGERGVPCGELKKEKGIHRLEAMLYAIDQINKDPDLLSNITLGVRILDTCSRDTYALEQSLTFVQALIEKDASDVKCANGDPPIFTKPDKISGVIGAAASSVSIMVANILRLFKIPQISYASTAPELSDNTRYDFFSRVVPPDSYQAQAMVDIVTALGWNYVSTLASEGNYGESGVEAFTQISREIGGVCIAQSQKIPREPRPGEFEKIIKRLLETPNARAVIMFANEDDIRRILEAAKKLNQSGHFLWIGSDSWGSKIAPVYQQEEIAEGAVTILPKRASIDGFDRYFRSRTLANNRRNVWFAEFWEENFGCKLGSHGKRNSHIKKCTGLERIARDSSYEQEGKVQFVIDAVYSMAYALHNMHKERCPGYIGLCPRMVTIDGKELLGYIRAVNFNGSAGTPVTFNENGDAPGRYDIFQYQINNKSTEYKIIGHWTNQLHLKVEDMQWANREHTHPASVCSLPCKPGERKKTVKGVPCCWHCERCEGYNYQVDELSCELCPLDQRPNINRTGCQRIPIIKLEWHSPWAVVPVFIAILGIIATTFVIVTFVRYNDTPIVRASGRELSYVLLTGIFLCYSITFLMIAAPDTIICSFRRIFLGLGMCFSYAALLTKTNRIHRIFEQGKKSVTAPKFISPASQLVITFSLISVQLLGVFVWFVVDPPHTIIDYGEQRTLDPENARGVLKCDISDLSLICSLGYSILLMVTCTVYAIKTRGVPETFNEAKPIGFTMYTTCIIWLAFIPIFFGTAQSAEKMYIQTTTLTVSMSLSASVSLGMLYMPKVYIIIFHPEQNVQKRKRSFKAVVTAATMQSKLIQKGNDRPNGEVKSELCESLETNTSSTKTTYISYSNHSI

| Structure (SMILES) | z-score |
| --- | --- |
| CCC(C)NCCOCCOc1ccc(Br)cc1C (stereo not given) | -0.776 |
| CCOC(=O)c1c(NC(=S)Nc2ccc(C)cc2)sc2c1CCC2 | -0.0357 |
| Cc1cccc(OCCSc2ncnc3nc[nH]c23)c1 | -0.162 |
| O=C(Nc1ccccc1)c1cccnc1NCCc1ccccc1 | -0.23 |
| O=C(CCc1ccccc1)OCC(=O)c1ccc(Br)cc1 | -0.193 |
| O=C(COC(=O)/C=C/c1ccc(F)cc1)Nc1ccccc1-c1ccccc1 | 0.0587 |
| COC(=O)c1nc(-n2nc(C)cc2C)ccc1Cl | -0.265 |
| CCc1ccc(NC(=O)C2CC(=O)Nc3ncnn32)cc1 (stereo not given) | -0.109 |
| CCOC(=O)CS(=O)(=O)c1ccccc1 | 0.158 |
| COC(/C=C/Nc1ccc(C)cc1)=C(C#N)C#N | -0.275 |
| CC(=O)Nc1ccc(S(=O)(=O)NNC(=O)COc2cc(C)ccc2C(C)C)cc1 | 0.303 |
| CC(Sc1nc(N)cc(=O)[nH]1)C(=O)Nc1cccc(Cl)c1 (stereo not given) | -0.0879 |
| O=C(CCc1ccccc1)Nc1nnc(-c2ccccn2)o1 | 0.0278 |
| O=C(O)Cc1ccc(NC(=O)c2ccc(NC(=O)c3ccco3)cc2)cc1 | -0.337 |
| O=C(/C=C/c1ccco1)Oc1cc(Br)cc(/C=N/NC(=O)c2ccccc2O)c1 | -0.00744 |
| Cc1cc(C)c(NC2=NCC(=O)N2C2CCCCC2)c(C)c1 | -0.306 |
| O=[N+]([O-])c1ccc(-c2cnc(NO)nc2)cc1 | -0.143 |
| COC(=O)C1=C(C)N(CC(C)C)C(=O)C1 | 0.0326 |
| COc1cccc(NCc2cc(=O)oc3cc(-c4ccccc4)c(O)cc23)c1 | 1.1 |
| CCNc1nc(NCc2ccccc2)nc(Oc2ccc(=O)[nH]n2)n1 | -0.148 |
| CSCCC(NC(=O)c1ccco1)C(=O)OC(C)C(=O)NC(=O)NC1CCCCC1 (stereo not given) | active: -5.35 |
| NC(=O)C1(NC(=O)[C@@H]2CC3(CC(c4cccc(NC(=O)[C@@H]5CCC(=O)N5)c4)=NO3)CN2C(=O)c2ccccc2)CC1 (stereo not given in full) | -0.0696 |

| Structure (SMILES) | z-score |
| --- | --- |
| CC1(C)OC(=O)C2(Cc3ccccc3N3CCCCC32)C(=O)O1 (stereo not given) | -0.162 |
| Cc1occc1C(=O)N1N=C(C2CC2)CC1(O)C(F)(F)F (stereo not given) | 0.482 |
| CCn1c(SCC(N)=O)nc2c(c1=O)C1(CCCC1)Cc1ccccc1-2 | active: 5.27 |
| CCN(CC)C(=O)Cn1c(=O)n(C)c2ccccc21 | -0.353 |
| CCOC(=O)C1=C(CC)Nc2ccccc2N=C1NC(=O)c1cccc(S(=O)(=O)N2CCCC2)c1 | -0.533 |
| Cc1nc(-c2ccccc2O)n(S(=O)(=O)N(C)C)n1 | -0.0465 |
| COc1ccccc1NC(=O)CSc1nc2sc(C)c(C)c2c(=O)n1Cc1ccco1 | -0.18 |
| COc1ccc2[nH]c(=O)c(CN(C(=O)c3ccncc3)C(C)(C)C)cc2c1 | 0.0369 |
| CC(C)CCN1C(=O)c2ccc(C(=O)NCc3ccco3)cc2C1=O | -0.496 |
| CN1CCN(S(=O)(=O)c2ccc(Sc3nnc(-c4cccs4)n3-c3ccccc3)nc2)CC1 | -0.32 |
| Cc1c(NC(=O)CN2c3cccc4cccc(c34)S2(=O)=O)c(=O)n(-c2ccccc2)n1C | 0.347 |
| Cc1ccc(C2NC(=O)c3c(sc4c3CCN(C)C4)N2)s1 (stereo not given) | -0.182 |
| COC(=O)c1ccc(NC(=O)CSc2nnc(C)n2-c2ccccc2)cc1 | -0.137 |
| CC(NC(=O)c1cccnc1)C(c1ccccc1)N1CCN(C)CC1 (stereo not given) | 0.00847 |
| C=CCn1c(SCc2ccccc2)nnc1-c1cccnc1 | -0.0801 |
| Cc1cc2ncn(S(=O)(=O)N3CCCCC3)c2cc1C | -0.651 |
| CC(C)(C)NC(=S)NCc1ccc2c(c1)OCO2 | 0.0205 |
| CCOC(=O)N1CCN(C(=O)C(c2ccccc2)c2ccccc2)CC1 | -0.133 |
| C/C=C/c1ccc(OCCOc2cccc3cccnc23)c(OC)c1 | -0.161 |
| Clc1ccccc1-c1nnc2sc(C3COc4ccccc4O3)nn12 (stereo not given) | -0.958 |
| O=C(Nc1ccc(-c2nnc3n2CCCCC3)cc1)c1cnccn1 | -0.462 |
| CCCN1Cc2cccc(C(=O)Nc3ccc(C)cc3)c2C1=O | 0.0165 |

| Structure (SMILES) | z-score |
| --- | --- |
| CCc1nc(SCC(=O)c2ccc3c(c2)OCCO3)c2ccccc2n1 | -0.802 |
| O=c1c(-c2nc3ccccc3o2)c2oc3ccccc3n2c2ccccc12 | -1.72 |
| COc1ccc(Cn2nc(C)n(N(C)c3ncc(C(F)(F)F)cc3Cl)c2=O)cc1 | -0.326 |
| COc1ccc2c(CC(=O)NCC3CCC(C(=O)O)CC3)cc(=O)oc2c1 (stereo not given) | -0.124 |
| COc1ccc(CCNc2cc(C)nc3c(-c4ccccc4)cnn23)cc1OC | -0.299 |
| Cc1ccc(P(=O)(CO)c2ccc(C)cc2)cc1 | -0.17 |
| C=CCn1c(CCNC(=O)c2cccs2)nnc1SCC(=O)c1ccc(Cl)cc1 | -0.334 |
| CC(C)NC(=S)N=Nc1c(O)[nH]c2ccc(C(C)C)cc12 | 0.589 |
| CCCCOC(=O)c1ccc(N/C(=N\S(=O)(=O)c2ccccc2)c2ccccc2)cc1 | -0.212 |
| CC1CCN(S(=O)(=O)c2cccc(-c3nnc(-c4cccnc4)o3)c2)CC1 | -0.0658 |
| O=C(c1oc(=O)c2ccccc2c1-c1ccccc1)N1CCOCC1 | -0.111 |
| Cc1ccc(NC(=O)c2snc3c(=O)[nH]cnc23)cc1C | 0.0461 |
| CCCn1c(SCC(=O)Nc2ccc(OC)cc2)nnc1-c1ccncc1 | -0.0144 |
| O=C(c1cnn2c(C(F)(F)F)cc(-c3cccs3)nc12)N1CCN(Cc2ccccc2)CC1 | active: -3.66 |
| CCOC(=O)C(=O)Nc1nnc(Cc2ccc(OC)c(OC)c2)s1 | -0.264 |
| N#CCSc1nnc(N)s1 | 0.157 |
| CC(=O)NC(=S)Nc1ccc(NC(=O)COc2ccc(Cl)cc2Cl)cc1 | -0.0173 |
| O=C(O)Cn1nc(C(F)(F)F)c2c1CCCCC2 | -0.624 |
| CCc1ccc(CNCCNCC(C)O)cc1 (stereo not given) | 1.85 |
| Cc1cc(C)n(-c2ccc(C(=O)N3CCc4ccccc43)cc2)n1 | 1.27 |
| CC(=O)NNc1nc(-c2ccc(NC(C)=O)cc2)cs1 | -0.0151 |
| CC1CN(CCC(=O)Nc2ccc3c(c2)CCC3)CC(C)O1 (stereo not given) | -0.034 |

| Structure (SMILES) | z-score |
| --- | --- |
| Cc1ccc(C(=O)N[C@H](C(=O)OCc2cc(=O)n3c(n2)sc2ccccc23)C(C)C)cc1 | -0.284 |
| O=C(Nc1ccc(-c2cn3ccsc3n2)cc1)C1CC1 | 0.0491 |
| COc1cc([N+](=O)[O-])ccc1N | -0.0672 |
| CCCC(=O)N(CCN(C(=O)CCC)c1ccccc1)c1ccccc1 | -0.957 |
| COc1ccc(-n2nc(C(=O)NCC(=O)Nc3ccccn3)c3ccccc3c2=O)cc1Cl | -0.298 |
| Cc1c(NC(=O)CN2CCN(C(=O)c3ccco3)CC2)c(=O)n(-c2ccccc2)n1C | -0.261 |
| CC1CCN(C(=O)CC2C(=O)Nc3c2c(=O)n(C)c(=O)n3Cc2ccccc2)CC1 (stereo not given) | -0.499 |
| C=CCOC(=O)CCP(=O)(CCC(=O)OCC=C)c1ccccc1 | 0.407 |
| COc1ccc(NCc2nnc(SCC(=O)Nc3ccccc3OC)o2)cc1 | 0.202 |
| C=CCN1C(=O)C(CC(=O)Nc2ccc(C)cc2)SC1=Nc1c(C)n(C)n(-c2ccccc2)c1=O (stereo not given) | 0.0539 |
| CC1Cc2nc(SCC(=O)Nc3nccs3)n(C)c(=O)c2S1 (stereo not given) | -0.571 |
| O=C(Cn1cnc2ccccc2c1=O)Nc1ccc2c(c1)OCO2 | -0.353 |
| CC(C)c1[nH]nc2c1C(c1cccc(OC(=O)N3CCOCC3)c1)C(C#N)=C(N)O2 (stereo not given) | -1.23 |
| Cc1cc(C)n(CC(=O)Nc2ccccc2)n1 | 0.708 |
| O=C(NC1(C(F)(F)F)NC(=O)N(C2CCCCC2)C1=O)c1cccs1 (stereo not given) | 0.175 |
| CC1CCCN(c2nc(-c3cccnc3)nc3scc(-c4ccccc4)c23)C1 (stereo not given) | -0.0274 |
| O=C(Nc1ccccc1)OCCNC(=O)c1cccc(Cl)c1 | 0.214 |
| Cc1noc(C)c1S(=O)(=O)N1CCC(C(=O)NCCN2CCC(C)CC2)CC1 | 1.3 |
| O=C(c1sc2cc([N+](=O)[O-])ccc2c1Cl)N1CCOCC1 | -0.116 |
| O=C(CN(C1CC1)S(=O)(=O)c1ccc(S(=O)(=O)NC2CCCCC2)cc1)Nc1ccccc1 | -1.33 |
| CC(=O)N(C)C1=C(O)c2ccccc2C(=O)C1=O | -0.0878 |
| C/C(=N\NC(=O)c1nn(C)cc1Br)c1ccncc1 | -0.273 |

| Structure (SMILES) | z-score |
| --- | --- |
| Cc1cccc(C(=O)Nc2ccc(C(=O)/C=C/c3cccnc3)cc2)c1 | -0.232 |
| Cc1ccc(-c2nnn(CC(=O)N3c4ccccc4CCc4ccccc43)n2)cc1 | -0.119 |
| COC(=O)c1nn(-c2ccccc2)ccc1=O | -0.17 |
| Nc1nc(N2CCN(C(=O)c3ccco3)CC2)nc2ccccc12 | -0.159 |
| Cc1c(NC(=O)C2(c3ccccc3)CCOCC2)c(=O)n(-c2ccccc2)n1C | 0.381 |
| CCN(C(=O)CCc1nc(-c2ccccc2F)no1)c1cc(OC)ccc1OC | -0.172 |
| COc1ccc(/C=N/n2c(C)cc(C)c(C(N)=O)c2=O)cc1 | -0.0455 |
| COc1c(C)cc(Br)cc1C(=O)NCc1cccnc1 | 0.689 |
| CCCn1c(SCC(=O)c2ccc3c(c2)OCCO3)nnc1-c1ccco1 | 0.0203 |
| CCOC(=O)C1C(C(=O)OCC)C1(c1ccccc1)c1ccccc1 (stereo not given) | 0.164 |
| CC1(C)SC(=S)N(NC(=O)Nc2ccccc2)C1N(O)C(=O)Nc1cccc2ccccc12 (stereo not given) | 0.0402 |
| Cc1ccc(CN2C(=O)CCC2C(=O)NC2CC2)cc1 (stereo not given) | 1.03 |
| COc1ccc(C(CNC(=O)c2cc(C)oc2C)N2CCOCC2)cc1 (stereo not given) | 0.0164 |
| CSc1nc2ccc(S(=O)(=O)N3CCc4ccccc43)cc2s1 | -0.0505 |
| C/C(=N\NC(=O)c1ccccc1)c1ccc2c(c1)OCO2 | -0.195 |
| CN(Cc1nc(-c2cccnc2)no1)S(=O)(=O)c1ccc(Br)cc1 | 0.309 |
| O=c1c([N+](=O)[O-])cc(C(F)(F)F)cn1Cc1cccc(Cl)c1 | -0.172 |
| Cc1noc(C)c1COC(=O)c1ccc(-c2nc3ccccc3s2)s1 | 0.398 |
| COc1ccccc1C(=O)NCC(=O)n1nc(C)cc1C | -0.514 |
| Cc1ccc(-c2cc(C(F)(F)F)n3ncc(C(=O)NCc4ccco4)c3n2)cc1 | -0.234 |
| Cc1cccn2c(=O)c(/C=C(\C#N)S(=O)(=O)c3ccccc3)c(N3CCC(C(N)=O)CC3)nc12 | -0.378 |
| Cc1ccccc1-n1c(C)nnc1SCc1nc2ccccc2s1 | -0.699 |
